Results taken from PMC3926831.
Results are given in words; binding and its absence hold for the method and conditions named. In cells and extracts the contact can be indirect. Some entries that bind do so weakly or less than the wild type. For part of these data: Sequences can lack the tags named with a protein.

The chains behind the UniProt entries cited, without tags or fusion partners. Where a name states a change or a piece, a line headed by the entry shows the natural chain unless it says otherwise. A line that says so, or that is headed by a name, gives the form on record, which may keep a tag or linker.
UniProt P49674: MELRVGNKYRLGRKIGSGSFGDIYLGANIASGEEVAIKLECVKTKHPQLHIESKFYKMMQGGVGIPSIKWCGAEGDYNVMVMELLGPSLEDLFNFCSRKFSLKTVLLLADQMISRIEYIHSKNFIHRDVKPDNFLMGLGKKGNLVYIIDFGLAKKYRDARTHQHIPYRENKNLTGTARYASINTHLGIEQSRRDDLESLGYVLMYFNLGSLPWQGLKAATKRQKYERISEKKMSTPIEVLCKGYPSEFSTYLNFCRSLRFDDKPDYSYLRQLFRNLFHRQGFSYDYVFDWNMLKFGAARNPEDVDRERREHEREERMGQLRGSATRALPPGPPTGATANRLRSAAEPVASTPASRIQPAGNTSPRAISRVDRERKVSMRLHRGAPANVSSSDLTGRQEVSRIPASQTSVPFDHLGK
UniProt P63208: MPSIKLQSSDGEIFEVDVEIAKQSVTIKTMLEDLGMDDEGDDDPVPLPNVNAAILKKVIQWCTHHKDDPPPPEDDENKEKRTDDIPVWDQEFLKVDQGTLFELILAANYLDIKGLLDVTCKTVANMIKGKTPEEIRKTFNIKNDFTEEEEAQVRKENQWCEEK
β-TRCP1, endogenous (Q9Y297-2, form named): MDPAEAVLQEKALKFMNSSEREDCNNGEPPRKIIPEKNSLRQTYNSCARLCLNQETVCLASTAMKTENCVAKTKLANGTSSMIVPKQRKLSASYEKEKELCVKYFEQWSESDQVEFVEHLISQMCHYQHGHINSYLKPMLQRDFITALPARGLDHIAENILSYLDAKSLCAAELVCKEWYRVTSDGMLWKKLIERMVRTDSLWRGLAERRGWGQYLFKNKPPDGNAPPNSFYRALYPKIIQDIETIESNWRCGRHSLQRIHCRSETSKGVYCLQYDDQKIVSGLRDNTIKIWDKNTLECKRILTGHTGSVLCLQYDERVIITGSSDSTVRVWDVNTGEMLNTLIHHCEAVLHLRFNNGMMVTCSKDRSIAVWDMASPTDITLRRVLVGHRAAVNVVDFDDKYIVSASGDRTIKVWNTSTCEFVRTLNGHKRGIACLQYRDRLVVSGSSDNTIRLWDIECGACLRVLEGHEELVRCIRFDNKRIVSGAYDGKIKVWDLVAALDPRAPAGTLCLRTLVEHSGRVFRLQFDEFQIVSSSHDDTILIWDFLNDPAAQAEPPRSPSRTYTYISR

Experiments:
GST-MTSS1 = target: T1, GST-MTSS1 (UniProt O43312); test: co-IP; 293T cells co-transfected with both tagged partners; 10 μM MG132 overnight before harvest; EBC lysis buffer; five washes with NETN buffer; for Myc-MTSS1 with Flag-β-TRCP1 lysates were also pre-treated with λ-phosphatase before the IP
T1 sequence: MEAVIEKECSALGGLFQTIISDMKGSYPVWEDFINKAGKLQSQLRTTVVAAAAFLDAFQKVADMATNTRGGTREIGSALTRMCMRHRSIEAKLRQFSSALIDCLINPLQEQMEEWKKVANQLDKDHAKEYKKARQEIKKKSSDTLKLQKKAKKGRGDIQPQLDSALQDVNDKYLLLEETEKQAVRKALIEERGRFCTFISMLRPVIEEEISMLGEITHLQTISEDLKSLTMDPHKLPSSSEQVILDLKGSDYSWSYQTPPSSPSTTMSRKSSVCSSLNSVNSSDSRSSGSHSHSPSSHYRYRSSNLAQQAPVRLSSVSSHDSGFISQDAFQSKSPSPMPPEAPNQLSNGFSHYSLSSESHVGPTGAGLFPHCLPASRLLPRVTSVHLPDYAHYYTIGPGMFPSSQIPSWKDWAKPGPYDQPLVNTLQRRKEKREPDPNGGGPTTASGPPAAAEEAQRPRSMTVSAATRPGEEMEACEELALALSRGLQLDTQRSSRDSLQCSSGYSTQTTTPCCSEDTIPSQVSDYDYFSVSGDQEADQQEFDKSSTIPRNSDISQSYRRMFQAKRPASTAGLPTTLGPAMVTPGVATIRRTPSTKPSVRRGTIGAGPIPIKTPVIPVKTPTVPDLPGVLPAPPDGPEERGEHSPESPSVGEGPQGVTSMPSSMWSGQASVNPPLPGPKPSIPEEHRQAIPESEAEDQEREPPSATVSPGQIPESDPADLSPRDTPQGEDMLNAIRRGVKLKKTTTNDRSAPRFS

[1] = target: T2, Metastasis suppressor 1 (MTSS1), endogenous (human (endogenous in 293T)) (UniProt O43312); test: co-IP; 293T cell extracts immunoprecipitated with antibody against MTSS1 or control IgG; both partners endogenous; immunoblot
T2 sequence: T1 sequence

binding (GST-MTSS1) | binding [1] | Substance
no binding | – | Myc-CKIε (from UniProt P49674 1-416) (enzyme)
binds | – | Myc-Skp1 (from UniProt P63208 1-163)
– | binds | β-TRCP1, endogenous (from UniProt Q9Y297-2 1-569)
